# Reference: a collection of fitness landscapes (doi:10.1016/j.celrep.2020.107928)
# Whole data set: some 81,000 sequences, median “one-hybrid fitness for binding parS DNA” near -0.17, cut for the highest 2% near 0.51. This is one part of the list.
# B1: Caulobacter ParB omega fusion; a variant is named by its letters at X, in order, B8GW30 (parent)
# chain: MESVVVGEPGMSEGRRGLGRGLSALLGEVDAAPAQAPGEQLGGSREAPIEILQRNPDQPRRTFREEDLEDLSNSIREKGVLQPILVRPSPDTAGEYQIVAGERAWRAAQRAGLKTVPIMVRELDDLAVLEIGIIENVQRADLNVLEEALSYKVLMEKFERTQENIAQTIGKSXSHVANXMRLLXLPDEVQSYLVSGELTAXHARAIAAAADPVALAKQIIEGGLSVRETEALARKAPNLSAGKSKGGRPPRVKDTDTQALESDLSSVLGLDVSIDHRGSTGTLTITYATLEQLDDLCNRLTRGI
# Variants of: B1
# Assay: one-hybrid fitness for binding parS DNA (scaled: cognate 1, non-cognate 0); higher = stronger binding
# Settings: with parS DNA site
# In short: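 The reporter was HIS3, with the binding site 19 bp from the promoter, in E. coli USO used for bacterial one-hybrid selection of Caulobacter ParB libraries with four specificity codons randomised. Growth was on M9 lacking histidine, with 0.1 mM IPTG and 5 mM 3-AT, for 48 hours at 37°C. Illumina sequencing covered plasmids before and after selection; three replicate libraries were pooled and variants with under 10 reads dropped. A fitness score is the log change in variant-to-wild-type read ratio, rescaled to the cognate and non-cognate references.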
row,Variant,one-hybrid fitness for binding parS DNA
1,TAPE,≤ 0.2
2,QLLD,≤ 0.2
3,RWAF,≤ 0.2
4,INCS,≤ 0.2
5,WVHI,≤ 0.2
6,CAST,≤ 0.2
7,WMTR,≤ 0.2
8,KKYS,≤ 0.2
9,HEHA,≤ 0.2
10,QKRY,≤ 0.2
11,EHWR,≤ 0.2
12,VGQW,≤ 0.2
13,ELNG,≤ 0.2
14,LVHH,≤ 0.2
15,ASKN,≤ 0.2
16,LLIF,≤ 0.2
17,GYNG,≤ 0.2
18,SPVS,≤ 0.2
19,KPQW,≤ 0.2
20,LGTM,≤ 0.2
21,TWSC,≤ 0.2
22,GGFS,≤ 0.2
23,TADP,≤ 0.2
24,PLFV,≤ 0.2

row,Variant,one-hybrid fitness for binding parS DNA
1,HVVG,≤ 0.2
2,VRFR,≤ 0.2
3,SAHC,≤ 0.2
4,VTSD,≤ 0.2
5,TPEW,≤ 0.2
6,GGSN,≤ 0.2
7,AREG,≤ 0.2
8,SFPE,≤ 0.2
9,LRHT,≤ 0.2
10,TDGL,≤ 0.2
11,AGLI,≤ 0.2
12,TAMD,≤ 0.2
13,QHIV,≤ 0.2
14,RPQG,≤ 0.2
15,GLCC,≤ 0.2
16,RHAQ,≤ 0.2
17,IRRK,≤ 0.2
18,WRGT,≤ 0.2
19,PVTW,≤ 0.2
20,RIAH,0.279
21,CCQG,≤ 0.2
22,GPAC,≤ 0.2
23,MTKN,≤ 0.2
24,PYHL,≤ 0.2

row,Variant,one-hybrid fitness for binding parS DNA
1,KMNQ,≤ 0.2
2,VNPC,≤ 0.2
3,PTCQ,≤ 0.2
4,LAFI,≤ 0.2
5,PWPW,≤ 0.2
6,ATGS,≤ 0.2
7,WDSN,≤ 0.2
8,SPDD,≤ 0.2
9,GVDS,≤ 0.2
10,NDVR,≤ 0.2
11,QVIR,≤ 0.2
12,IMNS,≤ 0.2
13,QPFV,≤ 0.2
14,QGMY,≤ 0.2
15,TRFC,≤ 0.2
16,TRIM,≤ 0.2
17,LGDY,≤ 0.2
18,WNTI,≤ 0.2
19,KHPF,≤ 0.2
20,KQPG,≤ 0.2
21,QQYE,≤ 0.2
22,CCWG,≤ 0.2
23,AYMW,≤ 0.2
24,NDPC,≤ 0.2

row,Variant,one-hybrid fitness for binding parS DNA
1,MPPC,≤ 0.2
2,QCKN,≤ 0.2
3,DMYR,≤ 0.2
4,QTPQ,≤ 0.2
5,AYPV,≤ 0.2
6,VWIR,≤ 0.2
7,PIYF,≤ 0.2
8,LNAD,≤ 0.2
9,YFSE,≤ 0.2
10,LAPV,≤ 0.2
11,LKDS,≤ 0.2
12,QRVN,≤ 0.2
13,VPVY,≤ 0.2
14,FSTT,≤ 0.2
15,ACGS,≤ 0.2
16,YRKL,≤ 0.2
17,PDGG,≤ 0.2
18,MGFT,0.389
19,ATFR,≤ 0.2
20,LDML,≤ 0.2
21,AHDT,≤ 0.2
22,TEGI,≤ 0.2
23,LSIT,≤ 0.2
24,EMLC,≤ 0.2

row,Variant,one-hybrid fitness for binding parS DNA
1,RHHC,0.934
2,SIWT,≤ 0.2
3,VCTC,≤ 0.2
4,PPWR,≤ 0.2
5,RPTS,≤ 0.2
6,QTVV,≤ 0.2
7,QCME,≤ 0.2
8,IYYR,≤ 0.2
9,RHVP,≤ 0.2
10,ALQF,≤ 0.2
11,PPIW,≤ 0.2
12,SLSP,≤ 0.2
13,CIAS,≤ 0.2
14,GLAN,≤ 0.2
15,ALDV,≤ 0.2
16,KMSG,≤ 0.2
17,AMGG,≤ 0.2
18,SDAV,≤ 0.2
19,FPTV,≤ 0.2
20,YIQL,≤ 0.2
21,LTTT,≤ 0.2
22,DLIY,≤ 0.2
23,CVGG,≤ 0.2
24,RIDK,≤ 0.2

row,Variant,one-hybrid fitness for binding parS DNA
1,PLAP,≤ 0.2
2,SEQT,≤ 0.2
3,VLKV,≤ 0.2
4,QLLN,≤ 0.2
5,EYVR,≤ 0.2
6,APAE,≤ 0.2
7,TLDS,≤ 0.2
8,WTRH,≤ 0.2
9,MEYR,≤ 0.2
10,YKQS,≤ 0.2
11,QCMR,≤ 0.2
12,VLNG,≤ 0.2
13,TRLE,≤ 0.2
14,RCNT,0.879
15,AKKM,≤ 0.2
16,YYHG,≤ 0.2
17,QGIS,≤ 0.2
18,RFNV,≤ 0.2
19,TGHC,≤ 0.2
20,IAMP,≤ 0.2
21,KHPK,≤ 0.2
22,EARD,≤ 0.2
23,SECR,≤ 0.2
24,DFTE,≤ 0.2

row,Variant,one-hybrid fitness for binding parS DNA
1,FFRR,≤ 0.2
2,RKNL,≤ 0.2
3,YKVT,≤ 0.2
4,CYYA,≤ 0.2
5,NPSL,≤ 0.2
6,QWVV,≤ 0.2
7,HKTC,≤ 0.2
8,FKIG,≤ 0.2
9,PALF,≤ 0.2
10,MKTT,≤ 0.2
11,PQEM,≤ 0.2
12,RNPL,≤ 0.2
13,RMQS,1.02
14,RWRC,0.895
15,LRKM,≤ 0.2
16,RDTW,≤ 0.2
17,VFTL,≤ 0.2
18,WVQS,≤ 0.2
19,VAYE,≤ 0.2
20,QSWP,≤ 0.2
21,TPHA,≤ 0.2
22,DFKL,≤ 0.2
23,ENIR,≤ 0.2
24,YQEG,≤ 0.2

row,Variant,one-hybrid fitness for binding parS DNA
1,AKSN,≤ 0.2
2,TSVN,≤ 0.2
3,NYFE,≤ 0.2
4,GYTV,≤ 0.2
5,QEQV,≤ 0.2
6,DVAA,≤ 0.2
7,REPS,≤ 0.2
8,DQND,≤ 0.2
9,VHFW,≤ 0.2
10,YSCN,≤ 0.2
11,SPGG,≤ 0.2
12,YLNY,≤ 0.2
13,HYSS,≤ 0.2
14,NADK,≤ 0.2
15,VTHG,≤ 0.2
16,WRQN,≤ 0.2
17,RIRM,0.373
18,HVKI,≤ 0.2
19,TFMD,≤ 0.2
20,HCWV,≤ 0.2
21,RPFA,≤ 0.2
22,VNPS,≤ 0.2
23,GRLC,≤ 0.2
24,SWYD,≤ 0.2

row,Variant,one-hybrid fitness for binding parS DNA
1,NLYR,≤ 0.2
2,SSKQ,≤ 0.2
3,QKPL,≤ 0.2
4,SSTK,≤ 0.2
5,RDKC,0.282
6,MAWK,≤ 0.2
7,RIVV,≤ 0.2
8,QKPI,≤ 0.2
9,QQSI,≤ 0.2
10,PHTM,≤ 0.2
11,QMPG,≤ 0.2
12,SIDR,≤ 0.2
13,KQRQ,≤ 0.2
14,CEDV,≤ 0.2
15,RAKP,≤ 0.2
16,CMNS,≤ 0.2
17,NNHL,≤ 0.2
18,HMPF,≤ 0.2
19,MAST,≤ 0.2
20,WPYP,≤ 0.2
21,KIPR,≤ 0.2
22,EMSS,≤ 0.2
23,LDNA,≤ 0.2
24,NRVG,≤ 0.2

row,Variant,one-hybrid fitness for binding parS DNA
1,TIDT,≤ 0.2
2,LNSN,≤ 0.2
3,ICMR,≤ 0.2
4,AMSC,≤ 0.2
5,FASL,≤ 0.2
6,YQVF,≤ 0.2
7,NQWC,≤ 0.2
8,QTRG,≤ 0.2
9,PMWV,≤ 0.2
10,CSIM,≤ 0.2
11,SRMT,≤ 0.2
12,SHVS,≤ 0.2
13,PRRL,≤ 0.2
14,VTGS,≤ 0.2
15,TPCV,≤ 0.2
16,YENK,≤ 0.2
17,REYC,≤ 0.2
18,SPIN,≤ 0.2
19,YLTY,≤ 0.2
20,SSTF,≤ 0.2
21,DSRC,≤ 0.2
22,MEDY,≤ 0.2
23,GHHA,≤ 0.2
24,HVGT,≤ 0.2

row,Variant,one-hybrid fitness for binding parS DNA
1,GVRD,≤ 0.2
2,WWAS,≤ 0.2
3,PNNW,≤ 0.2
4,VLLT,≤ 0.2
5,QCVY,≤ 0.2
6,ADRC,≤ 0.2
7,RKHN,0.375
8,FNGA,≤ 0.2
9,SCWS,≤ 0.2
10,LASY,≤ 0.2
11,HIMN,≤ 0.2
12,HANL,≤ 0.2
13,QLKE,≤ 0.2
14,SQFR,≤ 0.2
15,LCWV,≤ 0.2
16,CEGR,≤ 0.2
17,QHFK,≤ 0.2
18,DGIR,≤ 0.2
19,QYEC,≤ 0.2
20,QAQP,≤ 0.2
21,VEIA,≤ 0.2
22,QLHQ,≤ 0.2
23,STIY,≤ 0.2
24,SRQG,≤ 0.2

row,Variant,one-hybrid fitness for binding parS DNA
1,SLPI,≤ 0.2
2,GVKW,≤ 0.2
3,APPM,≤ 0.2
4,QSTT,≤ 0.2
5,YSKH,≤ 0.2
6,TRMF,≤ 0.2
7,CYAC,≤ 0.2
8,KWTG,≤ 0.2
9,GLLY,≤ 0.2
10,KTIS,≤ 0.2
11,RWDC,0.635
12,FRPC,≤ 0.2
13,RKVT,0.795
14,GMSV,≤ 0.2
15,KDLE,≤ 0.2
16,RTRQ,≤ 0.2
17,DDCL,≤ 0.2
18,RTRR,≤ 0.2
19,YSPI,≤ 0.2
20,TMDC,≤ 0.2
21,PQTS,≤ 0.2
22,VYRR,≤ 0.2
23,NQTG,≤ 0.2
24,HKSQ,≤ 0.2

row,Variant,one-hybrid fitness for binding parS DNA
1,WSHE,≤ 0.2
2,PHLG,≤ 0.2
3,PSCI,≤ 0.2
4,NLCE,≤ 0.2
5,VIHC,≤ 0.2
6,VAAM,≤ 0.2
7,RVPP,≤ 0.2
8,AKLI,≤ 0.2
9,HSMR,≤ 0.2
10,NSTV,≤ 0.2
11,VLAP,≤ 0.2
12,EIQG,≤ 0.2
13,KEHC,≤ 0.2
14,NYTR,≤ 0.2
15,SHSC,≤ 0.2
16,LSED,≤ 0.2
17,YNTN,≤ 0.2
18,PPYT,≤ 0.2
